Binding data for three molecules are collected here from PMC13189625.

Chains of the proteins cited; added tags and fusions are not shown.
UniProt G3X9J0: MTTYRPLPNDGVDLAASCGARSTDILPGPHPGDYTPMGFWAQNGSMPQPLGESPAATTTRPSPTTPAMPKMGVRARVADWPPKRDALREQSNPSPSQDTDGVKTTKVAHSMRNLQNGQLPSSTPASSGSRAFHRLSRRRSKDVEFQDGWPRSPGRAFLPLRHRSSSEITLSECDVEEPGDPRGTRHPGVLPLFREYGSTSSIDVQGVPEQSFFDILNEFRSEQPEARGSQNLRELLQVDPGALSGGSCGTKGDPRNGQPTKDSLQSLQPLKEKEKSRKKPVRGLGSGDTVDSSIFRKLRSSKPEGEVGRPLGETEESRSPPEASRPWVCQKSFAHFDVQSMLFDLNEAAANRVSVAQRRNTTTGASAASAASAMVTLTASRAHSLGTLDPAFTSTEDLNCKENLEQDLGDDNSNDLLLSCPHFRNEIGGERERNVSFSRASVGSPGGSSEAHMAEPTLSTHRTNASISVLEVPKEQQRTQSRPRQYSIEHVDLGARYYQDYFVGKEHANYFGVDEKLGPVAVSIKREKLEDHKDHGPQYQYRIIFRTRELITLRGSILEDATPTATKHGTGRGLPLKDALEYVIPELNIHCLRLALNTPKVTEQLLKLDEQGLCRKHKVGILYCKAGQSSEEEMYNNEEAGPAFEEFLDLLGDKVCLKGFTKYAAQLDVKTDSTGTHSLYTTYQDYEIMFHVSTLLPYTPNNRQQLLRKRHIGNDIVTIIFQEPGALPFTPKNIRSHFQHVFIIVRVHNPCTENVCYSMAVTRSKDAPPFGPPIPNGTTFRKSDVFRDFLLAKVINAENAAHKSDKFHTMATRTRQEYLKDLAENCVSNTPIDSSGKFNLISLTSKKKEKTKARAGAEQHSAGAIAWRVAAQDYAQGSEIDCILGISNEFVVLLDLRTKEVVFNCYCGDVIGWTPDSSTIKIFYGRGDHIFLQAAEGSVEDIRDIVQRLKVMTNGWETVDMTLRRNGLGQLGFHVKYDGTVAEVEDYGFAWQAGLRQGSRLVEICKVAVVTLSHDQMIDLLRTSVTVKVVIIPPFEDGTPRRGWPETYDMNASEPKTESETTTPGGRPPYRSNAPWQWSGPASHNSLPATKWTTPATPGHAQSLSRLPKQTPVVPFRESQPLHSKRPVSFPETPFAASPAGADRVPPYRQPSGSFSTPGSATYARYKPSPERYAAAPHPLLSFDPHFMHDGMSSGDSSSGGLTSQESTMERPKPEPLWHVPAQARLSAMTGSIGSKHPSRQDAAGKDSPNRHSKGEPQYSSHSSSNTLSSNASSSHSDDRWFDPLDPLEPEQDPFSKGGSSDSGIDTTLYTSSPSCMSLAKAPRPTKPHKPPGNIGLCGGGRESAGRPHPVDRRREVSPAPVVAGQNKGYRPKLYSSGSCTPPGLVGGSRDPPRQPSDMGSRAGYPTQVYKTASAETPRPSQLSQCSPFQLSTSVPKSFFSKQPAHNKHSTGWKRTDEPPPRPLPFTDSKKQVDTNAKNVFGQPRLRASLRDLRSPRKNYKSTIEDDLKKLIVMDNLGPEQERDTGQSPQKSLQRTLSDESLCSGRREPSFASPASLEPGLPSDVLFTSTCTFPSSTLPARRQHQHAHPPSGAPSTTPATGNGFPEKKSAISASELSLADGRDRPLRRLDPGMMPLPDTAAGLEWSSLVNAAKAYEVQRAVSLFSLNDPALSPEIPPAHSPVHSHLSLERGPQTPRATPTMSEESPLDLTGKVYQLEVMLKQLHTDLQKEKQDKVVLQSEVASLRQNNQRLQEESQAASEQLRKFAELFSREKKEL

Results are given in words; binding and its absence hold for the method and conditions named. In cells and extracts the contact can be indirect. Some entries that bind do so weakly or less than the wild type. For part of these data: Sequences can lack the tags named with a protein.

The target of one assay is Myc-Sipa1l3 (UniProt G3X9J0). Put plainly: co-IP; co-transfected HEK293T lysate; 0.5 µg Sipa1l3 antibody overnight, then protein A/G beads 1 h at 4°C; Western blot. (In general: A western blot detects proteins with antibodies after separation by electrophoresis.)
The target of the next assay is T1, FLAG-Sj2bp (UniProt P57105).
T1 sequence: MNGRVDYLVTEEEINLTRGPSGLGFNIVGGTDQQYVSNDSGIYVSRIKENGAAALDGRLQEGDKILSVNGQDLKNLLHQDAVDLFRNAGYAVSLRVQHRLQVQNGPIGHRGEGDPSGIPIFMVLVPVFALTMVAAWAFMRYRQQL
Put plainly: co-IP; co-transfected HEK293T lysate cleared at 20,000 × g; DYKDDDDK Fab-Trap agarose overnight, FLAG-Sj2bp as bait; Western blot.

The next assay has as its target T2, GFP-ZO-2 (UniProt Q9UDY2).
T2 sequence: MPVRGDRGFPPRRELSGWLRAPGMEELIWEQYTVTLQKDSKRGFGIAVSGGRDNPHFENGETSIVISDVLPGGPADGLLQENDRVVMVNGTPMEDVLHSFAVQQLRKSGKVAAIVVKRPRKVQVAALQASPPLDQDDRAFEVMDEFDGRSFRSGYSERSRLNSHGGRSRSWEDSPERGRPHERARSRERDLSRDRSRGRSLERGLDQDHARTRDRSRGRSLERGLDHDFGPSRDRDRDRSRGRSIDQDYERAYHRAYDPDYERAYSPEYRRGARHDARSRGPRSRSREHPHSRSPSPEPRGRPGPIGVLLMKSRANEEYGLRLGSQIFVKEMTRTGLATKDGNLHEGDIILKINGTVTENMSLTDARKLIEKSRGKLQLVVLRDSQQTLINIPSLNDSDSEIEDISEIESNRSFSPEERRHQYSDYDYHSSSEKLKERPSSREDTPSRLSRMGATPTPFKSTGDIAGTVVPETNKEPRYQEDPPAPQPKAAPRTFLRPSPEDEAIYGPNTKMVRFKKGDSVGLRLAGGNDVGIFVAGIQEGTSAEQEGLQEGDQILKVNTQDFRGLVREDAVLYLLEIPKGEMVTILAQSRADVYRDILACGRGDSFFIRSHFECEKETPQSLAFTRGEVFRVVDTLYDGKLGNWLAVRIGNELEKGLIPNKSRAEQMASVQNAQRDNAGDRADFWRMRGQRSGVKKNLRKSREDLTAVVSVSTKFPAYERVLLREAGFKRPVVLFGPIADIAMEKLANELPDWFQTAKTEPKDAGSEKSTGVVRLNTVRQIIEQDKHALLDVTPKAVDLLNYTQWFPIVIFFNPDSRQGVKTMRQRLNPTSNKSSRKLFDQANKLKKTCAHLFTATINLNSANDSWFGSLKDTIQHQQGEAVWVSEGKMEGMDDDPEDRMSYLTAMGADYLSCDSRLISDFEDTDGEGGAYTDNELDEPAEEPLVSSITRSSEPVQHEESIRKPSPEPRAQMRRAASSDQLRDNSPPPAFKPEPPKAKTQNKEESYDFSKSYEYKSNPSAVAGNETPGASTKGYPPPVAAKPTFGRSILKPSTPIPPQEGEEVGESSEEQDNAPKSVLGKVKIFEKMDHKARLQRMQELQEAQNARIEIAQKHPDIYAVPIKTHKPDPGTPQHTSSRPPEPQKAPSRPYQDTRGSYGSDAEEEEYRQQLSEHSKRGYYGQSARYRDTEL
Put plainly: co-IP; co-transfected HEK293T lysate; GFP-Trap agarose overnight at 4°C; IP buffer with 200 mM NaCl, 1% Tx-100, 50 mM Tris HCl pH 7.5; Western blot.

The next assay concerns the target T3, Venus-ZO-1, Q07157.
T3 chain: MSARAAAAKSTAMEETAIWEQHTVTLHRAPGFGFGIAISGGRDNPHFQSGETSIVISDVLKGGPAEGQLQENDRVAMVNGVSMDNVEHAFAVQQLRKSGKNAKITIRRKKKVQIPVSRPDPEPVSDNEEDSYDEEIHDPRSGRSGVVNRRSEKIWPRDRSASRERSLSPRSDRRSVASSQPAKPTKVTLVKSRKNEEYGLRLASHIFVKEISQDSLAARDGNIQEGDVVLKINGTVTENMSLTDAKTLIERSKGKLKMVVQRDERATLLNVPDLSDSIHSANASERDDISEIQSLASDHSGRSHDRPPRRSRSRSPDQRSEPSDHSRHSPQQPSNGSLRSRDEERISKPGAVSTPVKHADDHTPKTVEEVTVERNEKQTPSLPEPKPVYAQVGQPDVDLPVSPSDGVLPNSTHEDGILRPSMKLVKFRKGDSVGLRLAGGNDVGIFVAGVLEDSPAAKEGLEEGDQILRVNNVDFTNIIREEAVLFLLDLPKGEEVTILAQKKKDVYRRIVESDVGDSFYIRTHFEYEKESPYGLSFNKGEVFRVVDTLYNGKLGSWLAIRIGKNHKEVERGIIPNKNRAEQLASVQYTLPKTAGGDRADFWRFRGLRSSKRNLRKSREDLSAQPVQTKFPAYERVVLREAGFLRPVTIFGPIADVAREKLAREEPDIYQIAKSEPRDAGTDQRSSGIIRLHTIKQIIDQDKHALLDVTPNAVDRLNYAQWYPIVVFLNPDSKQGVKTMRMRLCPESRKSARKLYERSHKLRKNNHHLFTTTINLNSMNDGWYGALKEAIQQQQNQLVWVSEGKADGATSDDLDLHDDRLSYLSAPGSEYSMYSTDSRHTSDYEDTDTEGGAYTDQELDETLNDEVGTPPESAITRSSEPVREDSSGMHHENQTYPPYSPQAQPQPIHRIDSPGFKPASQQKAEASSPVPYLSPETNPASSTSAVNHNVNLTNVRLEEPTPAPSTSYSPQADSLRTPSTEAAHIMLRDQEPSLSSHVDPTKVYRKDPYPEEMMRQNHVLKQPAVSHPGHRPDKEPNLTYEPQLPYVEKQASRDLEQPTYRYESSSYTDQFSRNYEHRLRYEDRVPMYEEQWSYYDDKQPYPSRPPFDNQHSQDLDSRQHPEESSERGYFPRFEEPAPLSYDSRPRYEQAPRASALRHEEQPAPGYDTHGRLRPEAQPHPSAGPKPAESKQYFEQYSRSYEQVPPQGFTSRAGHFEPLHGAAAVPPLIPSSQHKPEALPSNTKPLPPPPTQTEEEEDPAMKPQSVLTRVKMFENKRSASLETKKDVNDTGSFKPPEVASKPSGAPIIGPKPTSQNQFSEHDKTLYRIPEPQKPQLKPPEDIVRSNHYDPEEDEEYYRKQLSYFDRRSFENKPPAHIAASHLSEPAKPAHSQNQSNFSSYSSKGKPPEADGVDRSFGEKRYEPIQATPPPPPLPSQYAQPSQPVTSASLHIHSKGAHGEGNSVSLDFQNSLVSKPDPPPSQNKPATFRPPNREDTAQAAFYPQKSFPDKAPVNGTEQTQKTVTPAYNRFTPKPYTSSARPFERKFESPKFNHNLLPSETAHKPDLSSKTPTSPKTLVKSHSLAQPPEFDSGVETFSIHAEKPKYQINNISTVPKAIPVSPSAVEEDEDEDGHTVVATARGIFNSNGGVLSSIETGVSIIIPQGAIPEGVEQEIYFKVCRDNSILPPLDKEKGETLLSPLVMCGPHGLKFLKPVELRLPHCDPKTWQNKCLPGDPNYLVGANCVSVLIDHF
The description is as above. The conditions noted are these: remark: other sources report otherwise.

In the case of “Cx36/S318Ter (from UniProt O54851 1-317) (domain or fragment)”, the binding entry with Myc-Sipa1l3 and in the assay with FLAG-Sj2bp was “no binding” in each case.
Take Connexin 36 (from UniProt O54851 1-321): the binding result in the assay with Myc-Sipa1l3 is “binds”; in the assay with FLAG-Sj2bp it was “no binding”; with GFP-ZO-2, “binds”.

B1: Connexin 36, O54851 1-321 (protein)
chain: MGEWTILERLLEAAVQQHSTMIGRILLTVVVIFRILIVAIVGETVYDDEQTMFVCNTLQPGCNQACYDRAFPISHIRYWVFQIIMVCTPSLCFITYSVHQSAKQRERRYSTVFLALDRDPAESIGGPGGTGGGGSGGSKREDKKLQNAIVNGVLQNTETTSKETEPDCLEVKELTPHPSGLRTAARSKLRRQEGISRFYIIQVVFRNALEIGFLVGQYFLYGFSVPGLYECNRYPCIKEVECYVSRPTEKTVFLVFMFAVSGICVVLNLAELNHLGWRKIKLAVRGAQAKRKSVYEIRNKDLPRVSVPNFGRTQSSDSAYV
In the case of B1, in the assay with Venus-ZO-1, Q07157, the binding entry is “binds”.
